Results taken from the supplement of paper PMC12632987.
Whole data set: some 4,500 sequences, median “median log2 fold change of GCK-ALFA target abundance (FLAG IP / Myc IP barcode read proportion)” near 0.078, cut for the lowest 2% near -0.6. This is one part of the list.

B1: GBRAP_128_3345 (protein)
chain: VDEEFIEEIKKLIEEMLEANEEEAKKLAKEIMEKLVKASLEEVKKAAEIIEENMPKFTAEHLEILADELRKYYDKFTPEQQEVIADLIVDLLNAAEEKEE
B2: GBRAP_80_6761 (protein)
chain: AEAALAAALARLKALDPELGARVAEVLERAVALGVPLAVVTRTVEALVELYEVDPERARKIAEELIERLTEALERGDRDEAIAILVDAESDALVEVEELE
B3: GBRAP_160_4459 (protein)
chain: SELKEKLIKEVDETREEAKEMIKGETHEQRVVIVEGLFGSFLLELAENENVSDELEDEVAEIVDELVDTLRANPDLTEEEIKALIDEAAEKIKEAIEKHL
B4: GBRAP_52_6049 (protein)
chain: MREEIRRRVEEILELVKAGDEEGARALLREVFETLSDEELELFIEEFARAAREARPEDFDAVARAVELAVEEAEEAGKPEELADLFEARVYAALYEAEQR
B5: GBRAP_166_4990 (protein)
chain: SLEELKKELEEELERVLEEIREANDEEVIELLIEFGIKLEEARKEGLPLEYILELAVRAAVEAAKVTGKPNLAVGVIGEAAGLDEEELDILEKRVLERLA
B6: GBRAP_95_7073 (protein)
chain: EDDLLLLESLVEVLDTYLDLGDEEKAREAAREAAETLKKLGYPKLPESLSLEGRLLIVEEAAKTYDEETTRKITEAILKSVKDEEDKEKIRKRLEELLKK
B7: GBRAP_80_6840 (protein)
chain: NEEKFKAAAAALRAATPAEMQPFIDALEEAAKAGASKERITRALEAMLALVKADPEKAKALAEEGLKDLKEALATGDVDEINATIADIEGDALVELEELE
B8: GBRAP_11_2843 (protein)
chain: NLEALKELQEKAEEIAKELAKLIASGNPTQEELDALKKKVEELLKEVKKHASKSAQKLAEIALEEVNEAIANPEKQKEHLEHALAAVRVLAGELLLEIEE
B9: GBRAP_9_7178 (protein)
chain: EQAKKKAILKTAKEEFELALEVVPEEKKPEVKKLLEEVLAELEKLVADPNTTLEELLEALEKLVEKLIKELKKILDKETYNQVEAVLGTAILEAEEIVEE
B10: GBRAP_52_6116 (protein)
chain: MRERLRAFVEEQLALVRAGREEEARARIRELVASIDEEELRILADALAELAREAAPEDLDAVWRLAELIAEAMEEAGKPEELVDYLLSKTAAALYEREQA
B11: GBRAP_128_3449 (protein)
chain: SVEEAAEYARETMEKMKESDLETARELAKELAEWLLTLSDEELAAAVEEIERLAPELSAEKLDILADVFREALPRFTPEQANLVADAEVELLNEAEEKEE
B12: GBRAP_160_4545 (protein)
chain: SEKVEEAIEDIDEEAEFVKSLVGKISTDELINAVDVEVGSFIMELAELGLLTDELEEEIDEIRDETLATLKANPNASDEEKKALIDEMAEKIKEAIKKHA
B13: GBRAP_125_3046 (protein)
chain: SLEELVEALALIAKRLGLSEEEVEELAELARKHGVKGTLIALLLAEGYEELAELASKLTEEEVAEVLKELAEWLKKNPNATKEEVIKKLKELLEKALKKK
B14: GBRAP_160_4240 (protein)
chain: SSSIEEIKEEILEEMELMVESLLEVDPSQWPAIARAYAGDIVQIVIENPEASDEMEEAVAEKADALVARLVAAKDASPEEIRALAEEGAEEIIKTIEELS
B15: GBRAP_160_4196 (protein)
chain: SEKIEELIKEIKEIAEEAKEMIEGESYEERVVIVEGALGQIILLVSESPEVSDETEEKIAEIADEAIAYLRAHPDLTEEEIKKLIDETTEKIIEIIKEGA
B16: GBRAP_39_5663 (protein)
chain: EEEEENELLFSYYEALAVKYKIDEGITDEEAIEEGKKLLRELAEEHPEIKEDVEKLLKKVEEGDEDVGLAAYGIALEYKEGTPLEEIKEHIKSLLKYVDK
B17: GBRAP_160_4449 (protein)
chain: MKTKEELIKLVEETKKETIELIKGESHEERVVIVEGEFGSLLMEFASDERVSDEMEDKIAEVVDELVKTLKENPDLSLEEIEALIEEAAEKIKEIIEEEL
B18: GBRAP_11_2902 (protein)
chain: KLEKLKELAELLKKAAELLKELLKKGVDDEELLKKALEVAKKALELAKEVLDESDVELAEYAVELLEKAKKDPENAEQYVKEALAIVRVLEGQVLLEIEE
B19: GBRAP_160_4829 (protein)
chain: EESKEKLKKLIEEEAEEAKRLIVGQTAEERAAIVAVEFGRVILELSELEEVSDELEDKVAEIADEAVETILANPDLTEEEVRALIEEAAEKIKEIIEKEL
B20: GBRAP_139_3725 (protein)
chain: MKKEEAIKKAKELVKKYKDDLEKLAKELAKLISSVDSETALEIARAAAEELKDYSWEKWEELIELLSKELKELGIDEDDILAIEGEFEAVMAKHLIEKEA
B21: GBRAP_11_2839 (protein)
chain: KKEELKKLAEKAEKIAKELKKLIASGNPTKEELEKLLKEAKKFLEETEKSGDKAATKIAKILVEDIEEAIANPETQKEHLERALAAAEVLAGQYLLELEE
B22: GBRAP_184_5108 (protein)
chain: KTLNVVVEADTLEEARAKLRAAVAEAAAAGANLNVLLDLKGFSGEELVDLVREFGRAAREAGVPRVTLGITNDLDEETVDKLIKVADELGINLVLAIPDK
B23: GBRAP_52_6308 (protein)
chain: MEERAREAAERIVALVLAGDREGARALLREMAKNWSEEELLLIARALAELARTADEAELDAIAEAMLMMEDVLEEEGVDEEVIAEMLGIVTTAMYERELR
B24: GBRAP_160_4592 (protein)
chain: SMSLEELKKFIEEEFEEAKKLIEGQTAEERANIAAVTGGEIIMKLSENPNVSEELEDKVAEIFDELVAYILAHPDLTDEEIKKLIDEAEKKVKEALEKYF
B25: GBRAP_64_6484 (protein)
chain: MEEAEKLLEEAIAAAKAALKLLKDKNPEHAKKLKEAIKLLEEAKTADLETAEELLVEALDILNEVFKDPNISEEAKEEVALALDYVSAAIYEYSELIEEE
B26: GBRAP_160_4642 (protein)
chain: SPFVEELKKIVEEGTKIVLEYIDEGDLENALAAMRTMVGEVVMEMSEDPRFSDEDVDEMAKLGDKYVEKLEAAKGASKEELKKLVLEGAEELKKLIESFE
B27: GBRAP_195_5410 (protein)
chain: MKVVGRVLRIEESDTPEDILAKIEAIVAEVKEESNGDLVLVVARHPSVPEETVRAAVAEAAERYPEIKITVEIFDDISLPLETLEAFARMEVANEEEERE
B28: GBRAP_150_3924 (protein)
chain: SLEELKTILDTAIDLIEGIADGELSLVPHALKLVEAALEEAEELPEEVREPVKKLLTEVIKNLKKIAAGAPEEERKKLIEEALAKLKEALKIVEKLIEEE
B29: GBRAP_128_3450 (protein)
chain: SVEEAAAHAREVMERIKASDLETARELAEELAAWLATLSDEEAAAAMDTLEELAPELSAEKLEILADVLRAALPGLSPEKARLAADAEVTFLNEAEEKEE

Each binder was assayed against GABARAP, O95166 (assay: median log2 fold change of GCK-ALFA target abundance (FLAG IP / Myc IP barcode read proportion) (log2 ratio); each designed protein is fused to an ALFA-tag nanobody in HEK293 cells to bring the named protein to FLAG-tagged glucokinase (GCK); Myc marks an untargeted standard; higher = target protein stabilised (more abundant)). Settings: target protein: 3xFLAG-MCP-GCK-ALFA reporter; HEK293 landing pad (RPLP).
Sequence of GABARAP, O95166 (O95166 whole entry, the tested form may be a part): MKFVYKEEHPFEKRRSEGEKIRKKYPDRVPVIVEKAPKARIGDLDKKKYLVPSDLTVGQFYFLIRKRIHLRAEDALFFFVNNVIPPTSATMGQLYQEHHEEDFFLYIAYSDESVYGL
Summary of the method: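 Sequencing of reverse-transcribed, amplified circular RNA barcodes from anti-FLAG and anti-Myc immunoprecipitates provided the readout for an ALFA-nanobody-fused binder library recombined into HEK293 landing-pad cells. Those cells were induced with 2 μg mL^−1 doxycycline, transfected with a plasmid expressing a FLAG-tagged target and a Myc-tagged standard, and lysed after 48 h. Target abundance is the per-binder median log2 ratio of FLAG to Myc barcode read proportions. Only barcodes at a proportion of ≥10^−7 in both replicates and binders with ≥3 barcodes per replicate were kept, with a 10^−6 pseudocount added before the two replicates were pooled.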
B1 was tested, and the “median log2 fold change” value was 0.223.
In the case of B2, the “median log2 fold change” value is reported as 0.272.
In the case of B3, the “median log2 fold change” value is reported as -0.047.
For B4, the “median log2 fold change” value was 0.12.
In the case of B5, the “median log2 fold change” value is reported as -0.01.
For B6, the “median log2 fold change” value was 0.172.
For B7, the “median log2 fold change” value was 0.124.
With B8 the “median log2 fold change” value was 0.0664.
In the case of B9, the “median log2 fold change” value is reported as 0.0939.
B10 was tested, and the “median log2 fold change” value was -0.0516.
For B11, the “median log2 fold change” value was -0.0934.
In the case of B12, the “median log2 fold change” value is reported as -0.0103.
With B13 the “median log2 fold change” value was -0.324.
With B14 the “median log2 fold change” value was -0.0253.
With B15 the “median log2 fold change” value was -0.144.
With B16 the “median log2 fold change” value was 0.142.
With B17 the “median log2 fold change” value was 0.395.
With B18 the “median log2 fold change” value was -0.234.
B19 was tested, and the “median log2 fold change” value was -0.0806.
For B20, the “median log2 fold change” value was -0.506.
With B21 the “median log2 fold change” value was 0.0853.
For B22, the “median log2 fold change” value was 0.0784.
In the case of B23, the “median log2 fold change” value is reported as -0.4.
For B24, the “median log2 fold change” value was 0.132.
B25 was tested, and the “median log2 fold change” value was -0.0168.
B26 was tested, and the “median log2 fold change” value was 0.27.
In the case of B27, the “median log2 fold change” value is reported as 0.261.
With B28 the “median log2 fold change” value was 0.131.
In the case of B29, the “median log2 fold change” value is reported as 0.257.
